Sequences with one replicate were seen in a single cluster, so their values are uncertain.
What follows are sequences tested on ATP (assay: switch fluorescence ratio, 500 uM ATP over buffer (Cy3 cluster intensity, sum of 5 cycles each) (fold (ratio)); higher = stronger signal-on switching upon ATP binding; sequences stand for … in TCGTCGGCAGCGTCAGATGTGTATAAGAGACAGTTTTTTTTTTTTTTTTTTTTTTTTT…TC). Details: aptamer strand: ATP DNA aptamer (quencher-CACCTGGGGGAGTATTGCGGAGGAAGG + anchor), 100 nM annealed; ATP concentration: 500 uM; one replicate.
Procedure, shortened: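 Switching-strand clusters labelled with Cy3 on a modified Illumina MiSeq flow-cell were annealed to 100 nM quencher-labelled ATP aptamer, imaged in selection buffer, and re-imaged after 15 min with 500 uM ATP at 22 °C. This was done over five cycles with NaOH stripping and re-annealing in between. The fluorescence ratio is summed target-cycle over summed buffer-cycle Cy3 intensity per cluster, averaged per switch-domain sequence, excluding clusters outside 100-1000 RFU.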
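Also: ATP exposure 15 min at 22 °C before imaging.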

Q: For GTCTATTGGT, which switch fluorescence ratio is on record?
A: 0.975

Q: Which switch fluorescence ratio does the source give for GAAAGCTTC here?
A: 1.48

Q: For CGCGAAGAAA, which switch fluorescence ratio is on record?
A: 1.04

Q: With TTAGGCGGAC as the sequence, how does the switch fluorescence ratio read?
A: 1.1

Q: How did the switch fluorescence ratio turn out when ATGATTGGGC was run?
A: 0.967

Q: For ATCATTGTGA, which switch fluorescence ratio is on record?
A: 1.03

Q: For AGAGATATTG, which switch fluorescence ratio is on record?
A: 0.984

Q: For TCTAGGTTTG, which switch fluorescence ratio is on record?
A: 0.968

Q: Which switch fluorescence ratio does the source give for TCCGTCGGGA here?
A: 1.83

Q: GCCGCGTCAA was tested. Which switch fluorescence ratio did it give?
A: 1.04

Q: For AAGACCCAGC, which switch fluorescence ratio is on record?
A: 0.994

Q: ACCCCCGGCA was tested. Which switch fluorescence ratio did it give?
A: 1.07

Q: Which switch fluorescence ratio does the source give for GACATCCACG here?
A: 1.27

Q: For ATAGCCGGGC, which switch fluorescence ratio is on record?
A: 1.01

Q: For TTACTTATAG, which switch fluorescence ratio is on record?
A: 0.99

Q: How did the switch fluorescence ratio turn out when AATCTTGTCG was run?
A: 0.918

Q: TCTTGTTTCG was tested. Which switch fluorescence ratio did it give?
A: 0.983

Q: How did the switch fluorescence ratio turn out when AGACTCAGTT was run?
A: 1.04

Q: With GAAGGTCTCG as the sequence, how does the switch fluorescence ratio read?
A: 0.992

Q: TAAATTTATG was tested. Which switch fluorescence ratio did it give?
A: 0.983

Q: Which switch fluorescence ratio does the source give for GACGCTTG here?
A: 1.09

Q: With ATATGTAAT as the sequence, how does the switch fluorescence ratio read?
A: 0.983

Q: With AATGGCTGGA as the sequence, how does the switch fluorescence ratio read?
A: 0.959

Q: How did the switch fluorescence ratio turn out when ATTTGTGCAC was run?
A: 1.02

Q: How did the switch fluorescence ratio turn out when CGTTTGGTTA was run?
A: 1.01

Q: Which switch fluorescence ratio does the source give for CTTGACTCGT here?
A: 1

Q: With TTAGTGGTAA as the sequence, how does the switch fluorescence ratio read?
A: 1.01

Q: With GTCACTGGCG as the sequence, how does the switch fluorescence ratio read?
A: 1.04

Q: For TTTTGAACTC, which switch fluorescence ratio is on record?
A: 0.971

Q: Which switch fluorescence ratio does the source give for GATCGTTACG here?
A: 1

Q: With GGATGAAATT as the sequence, how does the switch fluorescence ratio read?
A: 0.999

Q: TCCTTACTGT was tested. Which switch fluorescence ratio did it give?
A: 1.05

Q: For AACCATGATG, which switch fluorescence ratio is on record?
A: 0.973

Q: With AACGGGCAGG as the sequence, how does the switch fluorescence ratio read?
A: 1.05

Q: With TTTATGCTAG as the sequence, how does the switch fluorescence ratio read?
A: 0.99

Q: With GACCCAGCTG as the sequence, how does the switch fluorescence ratio read?
A: 1.04

Q: For TGATTTGAGC, which switch fluorescence ratio is on record?
A: 0.961

Q: GAGACTTTCA was tested. Which switch fluorescence ratio did it give?
A: 1.1

Q: For ATAAAACCAG, which switch fluorescence ratio is on record?
A: 0.986

Q: How did the switch fluorescence ratio turn out when TAACTTCTGC was run?
A: 0.962

Q: How did the switch fluorescence ratio turn out when TAATATAGT was run?
A: 0.962

Q: TTATAGAGGG was tested. Which switch fluorescence ratio did it give?
A: 1.05

Q: With CTACAAGGGC as the sequence, how does the switch fluorescence ratio read?
A: 1.05

Q: CGTGCGGAGC was tested. Which switch fluorescence ratio did it give?
A: 1.03

Q: With GAGTCTCCGG as the sequence, how does the switch fluorescence ratio read?
A: 1.02

Q: How did the switch fluorescence ratio turn out when CCTCGGTCAT was run?
A: 3.93

Q: How did the switch fluorescence ratio turn out when GCCAAGTAGG was run?
A: 0.997

Q: CTTTAGACTT was tested. Which switch fluorescence ratio did it give?
A: 0.997

Q: With TGGGCTTTCC as the sequence, how does the switch fluorescence ratio read?
A: 1.1

Q: With ATATGCTTGG as the sequence, how does the switch fluorescence ratio read?
A: 1.02

Q: How did the switch fluorescence ratio turn out when CGTTTCGGCT was run?
A: 0.986

Q: How did the switch fluorescence ratio turn out when ATGACAGGGC was run?
A: 1.04

Q: Which switch fluorescence ratio does the source give for GCTACACACT here?
A: 1.32

Q: How did the switch fluorescence ratio turn out when ACTTTGAATT was run?
A: 1.07

Q: With GGGGAGCACT as the sequence, how does the switch fluorescence ratio read?
A: 1.09

Q: How did the switch fluorescence ratio turn out when GAGAGGCCCT was run?
A: 0.981

Q: For CCGAAACGCC, which switch fluorescence ratio is on record?
A: 2.28

Q: AGAGAGAAGG was tested. Which switch fluorescence ratio did it give?
A: 0.976

Q: With GCTCAATTTT as the sequence, how does the switch fluorescence ratio read?
A: 1.02

Q: For CCGAGCTTGG, which switch fluorescence ratio is on record?
A: 1.24

Q: For TGTGGTCAA, which switch fluorescence ratio is on record?
A: 1.01

Q: Which switch fluorescence ratio does the source give for TCGCTCTCGT here?
A: 1.05

Q: CGCGGTTAAC was tested. Which switch fluorescence ratio did it give?
A: 1.3

Q: CGTTGGCTTG was tested. Which switch fluorescence ratio did it give?
A: 0.98

Q: How did the switch fluorescence ratio turn out when ACAGCTAAT was run?
A: 1.05

Q: For TACGGCTAGT, which switch fluorescence ratio is on record?
A: 1.02

Q: For TGCTTGAGAC, which switch fluorescence ratio is on record?
A: 1.01

Q: GGACTGTGAC was tested. Which switch fluorescence ratio did it give?
A: 1.08

Q: With AGGTACAGCG as the sequence, how does the switch fluorescence ratio read?
A: 1.09

Q: Which switch fluorescence ratio does the source give for GAAATTCAGG here?
A: 0.98

Q: With AAAGGGCTTG as the sequence, how does the switch fluorescence ratio read?
A: 0.973

Q: How did the switch fluorescence ratio turn out when AATAAGTTGA was run?
A: 1

Q: How did the switch fluorescence ratio turn out when CATTGCAGCC was run?
A: 1

Q: TTGCCGGCAT was tested. Which switch fluorescence ratio did it give?
A: 1.02

Q: ATTCCTAAGT was tested. Which switch fluorescence ratio did it give?
A: 0.989

Q: How did the switch fluorescence ratio turn out when TTTAATCGGT was run?
A: 0.963

Q: Which switch fluorescence ratio does the source give for GAGGTCAAC here?
A: 0.954

Q: With CACCTTTTTG as the sequence, how does the switch fluorescence ratio read?
A: 0.999

Q: With GAGTGAGGGG as the sequence, how does the switch fluorescence ratio read?
A: 1.1

Q: ACCTTCCAT was tested. Which switch fluorescence ratio did it give?
A: 1.75

Q: Which switch fluorescence ratio does the source give for GTGATTGGGT here?
A: 0.995

Q: How did the switch fluorescence ratio turn out when CGTGATGCTC was run?
A: 1.97

Q: TTTCGCGACT was tested. Which switch fluorescence ratio did it give?
A: 1.74

Q: How did the switch fluorescence ratio turn out when CATTGGCGTC was run?
A: 1.02

Q: With CGGTCCATCA as the sequence, how does the switch fluorescence ratio read?
A: 0.958

Q: How did the switch fluorescence ratio turn out when ATACCGGGTA was run?
A: 1.04

Q: CGTGCCTAAG was tested. Which switch fluorescence ratio did it give?
A: 0.967

Q: With ACGGTTTGAA as the sequence, how does the switch fluorescence ratio read?
A: 1

Q: Which switch fluorescence ratio does the source give for GATACAGTCG here?
A: 0.992

Q: For AAGGGGGACC, which switch fluorescence ratio is on record?
A: 1.09

Q: CCTCAAGCGT was tested. Which switch fluorescence ratio did it give?
A: 5.39

Q: Which switch fluorescence ratio does the source give for GTCTGTTTTG here?
A: 0.982

Q: How did the switch fluorescence ratio turn out when GACAGATTGC was run?
A: 0.964

Q: How did the switch fluorescence ratio turn out when TCATGTTTAC was run?
A: 0.956

Q: Which switch fluorescence ratio does the source give for CGTCCCGGT here?
A: 1.1

Q: GGGATCGCCA was tested. Which switch fluorescence ratio did it give?
A: 1

Q: For TGTGACCCGA, which switch fluorescence ratio is on record?
A: 1.04

Q: For TCTTCCCGGG, which switch fluorescence ratio is on record?
A: 1.13

Q: Which switch fluorescence ratio does the source give for ATCGAGAAAG here?
A: 0.983

Q: For CTCTTTAAGG, which switch fluorescence ratio is on record?
A: 1.04

Q: For AGTCCAAGTA, which switch fluorescence ratio is on record?
A: 1.02

Q: AGTATTACGT was tested. Which switch fluorescence ratio did it give?
A: 0.987

Q: With TGTTAGGTAT as the sequence, how does the switch fluorescence ratio read?
A: 0.992

Q: With GGGCCGGGGA as the sequence, how does the switch fluorescence ratio read?
A: 1.02

Q: How did the switch fluorescence ratio turn out when TCCTGTAACC was run?
A: 1.05

Q: Which switch fluorescence ratio does the source give for GGGTTACAGA here?
A: 1.03

Q: AATCAGTATT was tested. Which switch fluorescence ratio did it give?
A: 1.01

Q: Which switch fluorescence ratio does the source give for TAGACTCCCG here?
A: 1.31

Q: How did the switch fluorescence ratio turn out when ATTGTTAGCG was run?
A: 0.932

Q: How did the switch fluorescence ratio turn out when GACAATGATG was run?
A: 0.977

Q: Which switch fluorescence ratio does the source give for CCGTCGGTTT here?
A: 1.05

Q: TGATGAGCG was tested. Which switch fluorescence ratio did it give?
A: 0.982

Q: GCAGTAGGAC was tested. Which switch fluorescence ratio did it give?
A: 1.45

Q: With CTACCAGGAA as the sequence, how does the switch fluorescence ratio read?
A: 1.06

Q: How did the switch fluorescence ratio turn out when CGGGTAATCA was run?
A: 0.998

Q: With TTTTACCCGA as the sequence, how does the switch fluorescence ratio read?
A: 1.01

Q: With GCCGCCCTCT as the sequence, how does the switch fluorescence ratio read?
A: 1.06

Q: How did the switch fluorescence ratio turn out when GATCTTTCGC was run?
A: 1.01

Q: TTCTGGATGC was tested. Which switch fluorescence ratio did it give?
A: 1.02

Q: With GTAAAAGCG as the sequence, how does the switch fluorescence ratio read?
A: 1.03

Q: How did the switch fluorescence ratio turn out when CAATTCGCTT was run?
A: 1.02

Q: With CCTCCAGTTG as the sequence, how does the switch fluorescence ratio read?
A: 4.11

Q: Which switch fluorescence ratio does the source give for AACTTGCCAT here?
A: 1.02

Q: With CAACACTTTC as the sequence, how does the switch fluorescence ratio read?
A: 1.04

Q: With TGTCGACG as the sequence, how does the switch fluorescence ratio read?
A: 0.97

Q: For TAGCTGGGTA, which switch fluorescence ratio is on record?
A: 0.949

Q: How did the switch fluorescence ratio turn out when AAATAAGGAA was run?
A: 0.968

Q: With GCGGCTGGCA as the sequence, how does the switch fluorescence ratio read?
A: 1.05

Q: ATTGTGAAAC was tested. Which switch fluorescence ratio did it give?
A: 1.02

Q: TAGCTTGGAG was tested. Which switch fluorescence ratio did it give?
A: 1.02

Q: With CGTGACCTTC as the sequence, how does the switch fluorescence ratio read?
A: 1.19

Q: TTACTCGTTC was tested. Which switch fluorescence ratio did it give?
A: 1.07

Q: Which switch fluorescence ratio does the source give for CCGGTCTCTG here?
A: 0.906

Q: Which switch fluorescence ratio does the source give for TCTTGCTAAT here?
A: 0.989

Q: GAATTGACGG was tested. Which switch fluorescence ratio did it give?
A: 1

Q: With GCCGAATACC as the sequence, how does the switch fluorescence ratio read?
A: 1.47

Q: Which switch fluorescence ratio does the source give for ATAGGTGTTA here?
A: 1.02

Q: CCGCGCGCGC was tested. Which switch fluorescence ratio did it give?
A: 1.03

Q: Which switch fluorescence ratio does the source give for ATGTACAGTA here?
A: 1.07

Q: Which switch fluorescence ratio does the source give for TGAAAGTCGA here?
A: 1.03

Q: For TGATTGATCC, which switch fluorescence ratio is on record?
A: 1.02

Q: With CATTATACGA as the sequence, how does the switch fluorescence ratio read?
A: 1.05

Q: For ATACGTAAG, which switch fluorescence ratio is on record?
A: 1.12

Q: For CCGCAGTGTT, which switch fluorescence ratio is on record?
A: 3.58

Q: For TTGATCTCGC, which switch fluorescence ratio is on record?
A: 1.02

Q: Which switch fluorescence ratio does the source give for GACGCCTGGG here?
A: 0.971

Q: For ACAGGCTCTA, which switch fluorescence ratio is on record?
A: 1.02

Q: With AACGTCTACC as the sequence, how does the switch fluorescence ratio read?
A: 1.24

Q: How did the switch fluorescence ratio turn out when TTGGATGCG was run?
A: 0.978

Q: How did the switch fluorescence ratio turn out when CGCATAGACC was run?
A: 2.53

Q: With TCCTTAATA as the sequence, how does the switch fluorescence ratio read?
A: 1.04

Q: With CTCTGTCAAC as the sequence, how does the switch fluorescence ratio read?
A: 3.07

Q: For GTTTAGGTTC, which switch fluorescence ratio is on record?
A: 1.07

Q: How did the switch fluorescence ratio turn out when CAGAGGATTG was run?
A: 0.999

Q: Which switch fluorescence ratio does the source give for GTTATTGCCA here?
A: 0.998

Q: ACTGTGCGG was tested. Which switch fluorescence ratio did it give?
A: 1.02

Q: With ACGTTCACAT as the sequence, how does the switch fluorescence ratio read?
A: 1.31

Reference: the supplement of paper PMC10126150
